# From PubChem BioAssay AID624417 (National Center for Advancing Translational Sciences (NCATS), 2012)
# Screen size: about 410,000 compounds; about 6,400 (1.6%) were called active. Inconclusive means that the source gave no clear call. Such entries were picked first, then a sample of the others. Calls follow the shape of the dose curve; as a rule, active = well fitted inhibition curve with a large enough effect; inconclusive = small, poorly fitted or top-dose-only effect; inactive = no such curve, though single readings can be large or run the other way. Potencies of inconclusive entries are left out as doubtful fits.
# Target: Glucagon-like peptide 1 receptor (Homo sapiens) (UniProt P43220)
# Chain of UniProt P43220 (P43220 whole entry, looked up): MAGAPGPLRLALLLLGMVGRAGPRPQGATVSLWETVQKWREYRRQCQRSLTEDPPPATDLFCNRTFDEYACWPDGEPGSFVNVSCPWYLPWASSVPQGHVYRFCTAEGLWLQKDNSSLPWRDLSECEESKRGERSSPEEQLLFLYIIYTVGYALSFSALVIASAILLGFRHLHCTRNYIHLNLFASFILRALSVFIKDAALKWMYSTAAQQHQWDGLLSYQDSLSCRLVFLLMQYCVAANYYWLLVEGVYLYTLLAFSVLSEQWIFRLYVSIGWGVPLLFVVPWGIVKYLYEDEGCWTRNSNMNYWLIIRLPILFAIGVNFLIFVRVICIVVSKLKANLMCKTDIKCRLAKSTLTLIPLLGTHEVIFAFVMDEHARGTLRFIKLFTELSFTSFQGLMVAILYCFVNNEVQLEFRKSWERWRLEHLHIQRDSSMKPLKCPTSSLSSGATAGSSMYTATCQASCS
# Assay: qHTS of GLP-1 Receptor Inverse Agonists (Inhibition Mode); also: nearly all actives have a fitted effect of over 55% in size
# Conditions: HEK293 GLP-1R CRE-luciferase, luminescence, 24 h, GLP-1R form is constitutively active; activity change, negative = inhibition: at 38.3 µM (top of the series) unless noted
# Procedure, shortened: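 Cells are plated, allowed 12 hours at 37 deg C, then treated with compounds for 24 hr before luciferase detection reagent is added and luminescence is read after 12 min at room temperature. The HEK293 line carries constitutively active GLP-1R with a cAMP-responsive reporter.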
# % is scaled to controls: 0 for no effect and ±100 for the full control effect; potency is read from the fitted curve at half-maximal effect; tags tell the direction and shape of the fitted curve.
Structure (SMILES),Potency,"activity change, negative = inhibition"
O=C(C1CCC(CNS(=O)(=O)c2ccc(Br)s2)CC1)N1CCN(c2ccccc2)CC1 (stereo not drawn),"inconclusive [inhibitor, partial curve, poor fit]",–
CCn1c2ccccc2c2cc(NC(=O)c3cc(OC)c(OC)c(OC)c3)ccc21,"inconclusive [inhibitor, full curve, poor fit]",–
Cc1ccc(-n2nnnc2SCC(=O)Nc2cc(C)on2)c(C)c1,–,inactive: 9.23%
CC1(C(=O)Nc2cnc3ccccc3c2)CCN1Cc1cc2ccccc2o1 (stereo not drawn),"inconclusive [inhibitor, single point]",–
Cn1c2ccccc2c2cc(/C=N/NC(=O)c3ccc(N)cc3)ccc21,–,inactive: -27.6%
CCOC(=O)N1CCN(C(=O)C[C@@H]2C[C@@]3(C(=O)OC)CCCCC=C3N(CCC3=CCCCC3)C2=O)CC1,"inconclusive [inhibitor, partial curve, poor fit]",–
COc1ccccc1CC(=O)N1CCCc2ccccc21,"inconclusive [inhibitor, partial curve, poor fit]",–
Cc1cc(OC(=O)c2ccc(S(=O)(=O)N3CCOCC3)cc2)c([N+](=O)[O-])c(=O)[nH]1,–,inactive: 12.5%
O=C1CC(c2nc3ccccc3n2CCCCOc2ccccc2)CN1c1ccccc1Cl (stereo not drawn),active: 10 µM,–
CCC(C)c1ccccc1NC(=O)CN1CCN(C/C=C/c2ccccc2)CC1 (stereo not drawn),"inconclusive [inhibitor, partial curve, poor fit]",–
c1ccc(-c2nc(N3CCCCCC3)c3ccccc3n2)nc1,"inconclusive [inhibitor, full curve, poor fit]",–
Cc1nn(-c2ccccc2)c(/N=C/c2ccc(O)cc2)c1-c1ccccc1,"inconclusive [inhibitor, single point]",–
Cc1ccc(N/N=C/c2c(O)cc(C)oc2=O)cc1,"inconclusive [inhibitor, single point]",–
Cc1ccc(C2N(c3cccc(Cl)c3)C(=O)N3CCCN23)cc1 (stereo not drawn),"inconclusive [inhibitor, partial curve, poor fit]",–
O=C(Cc1c[nH]c2ccccc12)NCc1ccc(Cl)cc1Cl,"inconclusive [inhibitor, partial curve, poor fit]",–
Cc1cccc(COc2ccc(/C=N/NC(=O)c3nnn(-c4nonc4N)c3CN3CCCCC3)cc2)c1,–,inactive: 15.5%
O=c1cc(-c2ccccc2)[nH]n1-c1ccccc1,"inconclusive [inhibitor, single point]",–
CCOc1ccc(CC(=O)Nc2ccc3nc(N4CCCCC4)cc(C)c3c2)cc1OCC,"inconclusive [inhibitor, partial curve]",–
COc1ccc(OC)c(S(=O)(=O)N2CCC(C(=O)Nc3cccc(C(F)(F)F)c3)CC2)c1,active: 10 µM,–
O=C(NCCc1ccccc1)c1ccc2c(c1)N(Cc1ccccc1Cl)C(=O)c1ccccc1S2,"inconclusive [inhibitor, partial curve, poor fit]",–
O=C(COC(=O)C1(c2cccc(F)c2)CCCC1)NCc1ccc2c(c1)OCO2,"inconclusive [inhibitor, single point]",–

Structure (SMILES),Potency,"activity change, negative = inhibition"
CC(C)c1nnc(NC(=O)COc2ccc3c(c2)OCO3)s1,"inconclusive [inhibitor, partial curve, poor fit]",–
COc1cc(C(=O)NCCCCc2ccccc2)cc(OC)c1OC,"inconclusive [inhibitor, single point]",–
Cc1ccc(C)c(NC(=O)CCN2CCc3ccccc3C2)c1,active: 11.2 µM,–
COc1ccc(C(=O)/C=C/c2ccc(N(C)C)cc2)c(OC)c1,"inconclusive [inhibitor, partial curve, poor fit]",–
Cc1cccc(C)c1NC(=O)C(c1ccccc1OC(F)(F)F)N1CCN(c2ccc(F)cc2)CC1 (stereo not drawn),"inconclusive [inhibitor, single point]",–
CSCCC(=O)NC1CC(C)(C)Cc2c1cnn2-c1ccccc1C (stereo not drawn),–,inactive: 12.4%
Cc1ccc(-c2nc3c(c(SCC(=O)N4CCCCC4)n2)Cc2cc(C)ccc2O3)cc1,–,inactive: 2.73%
CCOC(=O)C1CCN(C(=O)c2cc(S(=O)(=O)N3CCOCC3)ccc2C)CC1,–,inactive: 15.4%
COc1cc(CNc2ccc(N3CCN(C(C)=O)CC3)cc2)ccc1OCc1ccccc1,–,inactive: -13.5%
COc1ccc(NC(=S)N2CCN(Cc3ccc(C)cc3)CC2)cc1,"inconclusive [inhibitor, partial curve, poor fit]",–
Cn1nc(C(=O)Nc2cccc(C(F)(F)F)c2)c2ccccc2c1=O,"inconclusive [inhibitor, single point]",–
CCCn1c(=O)c(C(=O)NCCc2ccc(OC)c(OC)c2)c(O)c2ccccc21,"inconclusive [inhibitor, partial curve]",–
CC(C)(C)Nc1nc(-c2ccccn2)nc2ccccc12,"inconclusive [inhibitor, full curve, poor fit]",–
CC(=O)c1ccc(NC(=O)C(C)Oc2ccc(N(C)S(=O)(=O)c3ccc(C)cc3)cc2)cc1 (stereo not drawn),"inconclusive [inhibitor, partial curve, poor fit]",–
Cc1cc(C)nc(N2CCCC(C(=O)NC3CCCC3)C2)n1 (stereo not drawn),–,inactive: 31.3%
COc1ccc(OC)c(NC(=O)C2(C)CCN2C(=O)CCC2CCCC2)c1 (stereo not drawn),"inconclusive [inhibitor, single point]",–
O=C(CC1Sc2ncnn2C1=O)Nc1ccc(Br)cc1 (stereo not drawn),"inconclusive [inhibitor, partial curve, poor fit]",–
CN1C(=O)N(CC(=O)Nc2cccc(S(=O)(=O)N(C)c3ccccc3)c2)C(=O)C12CCCCC2,"inconclusive [inhibitor, partial curve, poor fit]",–
Cc1ccc2nc(-c3ccc(C#N)cc3)c(Cc3ccccc3C(F)(F)F)n2c1,"inconclusive [inhibitor, single point]",–
COc1ccc(CC(=O)Nc2nc3c(s2)CC(C(C)(C)C)CC3)cc1 (stereo not drawn),"inconclusive [inhibitor, partial curve, poor fit]",–
COc1cccc(CN(C)C(=O)CCC(=O)c2cc(Br)ccc2OC)c1,"inconclusive [inhibitor, single point]",–

Structure (SMILES),Potency,"activity change, negative = inhibition"
CCCCN1C[C@H](c2ccc(OC)cc2)[C@@H](CC(=O)Nc2ccc(Br)cc2)C1=O,"inconclusive [inhibitor, partial curve, poor fit]",–
Cc1ccc(NC(=O)CN2C(=O)CCSc3ccc(S(=O)(=O)N4CCCC4)cc32)cc1,"inconclusive [inhibitor, full curve]",–
CC(C)N=C(NC#N)SCc1ccc(Br)cc1,"inconclusive [inhibitor, single point]",–
COc1ccc(OC)c(C=C2CCc3ccccc3C2=O)c1,"inconclusive [inhibitor, single point]",–
CCOC(=O)c1c(NC(=O)CS(=O)(=O)c2cn(CC)c3ccccc23)sc2c1CCCC2,"inconclusive [inhibitor, single point]",–
COc1ccc2cc(CN(CCO)C(=O)c3ccccc3F)c(=O)[nH]c2c1,–,inactive: 1.48%
O=C(/C=C/c1ccc(Br)cc1)N1CCN(c2cccc(C(F)(F)F)c2)CC1,active: 10 µM,–
Cc1ccc(C)c(NS(=O)(=O)c2cc(Br)cnc2N)c1,"inconclusive [inhibitor, partial curve, poor fit]",–
CCCCN1C(=O)C(CC(=O)NCCCCc2ccccc2)CC(C(=O)N(C(C)C)C(C)C)=C1C (stereo not drawn),"inconclusive [inhibitor, single point]",–
CC(C)(C)c1ccc(Oc2ccc(N)cc2)cc1,"inconclusive [inhibitor, partial curve, poor fit]",–
O=C(/C=C/c1ccc(Cl)cc1Cl)c1nc2ccccc2[nH]1,"inconclusive [inhibitor, partial curve]",–
C/C=C/c1ccc(OCC(=O)Nc2cc(OC)c(OC)c(OC)c2)c(OC)c1,"inconclusive [inhibitor, partial curve, poor fit]",–
O=[N+]([O-])c1ccc2nc(-c3ccc(Cl)cc3)[nH]c2c1,"inconclusive [inhibitor, single point]",–
CCCCn1nnnc1C(c1ccccc1)N1CCc2ccccc2C1 (stereo not drawn),"inconclusive [inhibitor, single point]",–
CCN(c1ccccc1)S(=O)(=O)c1cc(C(=O)NCC(c2ccc(OC)cc2)N(C)C)ccc1C (stereo not drawn),active: 11.2 µM,–
N#CCCN(C(=O)COC(=O)c1ccc(CNS(=O)(=O)c2ccc(F)c(Cl)c2)cc1)c1ccc(F)cc1,"inconclusive [inhibitor, partial curve, poor fit]",–
CCN(CC)C(=S)Oc1ccc(Cl)cc1Cl,"inconclusive [inhibitor, single point]",–
Cc1ccc(C)c(N2CCN(C(=O)c3ccc4nsnc4c3)CC2)c1,"inconclusive [inhibitor, partial curve, poor fit]",–
O=S(=O)(NCCOc1ccccc1F)c1cccc(Br)c1,"inconclusive [inhibitor, partial curve, poor fit]",–
CN(Cc1ccc(Cl)cc1)C(=O)c1ccc2ccccc2n1,"inconclusive [inhibitor, partial curve, poor fit]",–
Cc1ccc(C)c(NS(=O)(=O)c2cc(C(=O)Nc3ccccc3-c3ccccc3)ccc2C)c1,"inconclusive [inhibitor, single point]",–
